From patent publication US20250066372A1, “HETEROCYCLIC COMPOUNDS, COMPOSITIONS THEREOF, AND METHODS OF TREATMENT THEREWITH” (BeiGene, Ltd., priority 2022, published 2025)
pIC50: −log10 of the molar value.

Target: CDK6/Cyclin D3 (Homo sapiens (Human), UniProt Q00534)
Details: read-out: CDK6/Cyclin D3 IC50; TR-FRET, 1 mM ATP, 0.15 μM Rb (Ser780)-biotin substrate

UniProt Q00534, sequence (Q00534 whole entry): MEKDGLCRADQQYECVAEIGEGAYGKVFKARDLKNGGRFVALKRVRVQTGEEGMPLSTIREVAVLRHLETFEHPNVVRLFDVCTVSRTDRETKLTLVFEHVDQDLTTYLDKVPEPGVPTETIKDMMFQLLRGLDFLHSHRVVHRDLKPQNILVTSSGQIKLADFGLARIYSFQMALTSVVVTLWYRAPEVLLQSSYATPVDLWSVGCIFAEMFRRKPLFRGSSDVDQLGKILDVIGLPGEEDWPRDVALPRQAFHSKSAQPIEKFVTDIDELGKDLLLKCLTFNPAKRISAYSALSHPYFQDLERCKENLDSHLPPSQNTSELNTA
UniProt Q00534, sequence (P30281 whole entry partner): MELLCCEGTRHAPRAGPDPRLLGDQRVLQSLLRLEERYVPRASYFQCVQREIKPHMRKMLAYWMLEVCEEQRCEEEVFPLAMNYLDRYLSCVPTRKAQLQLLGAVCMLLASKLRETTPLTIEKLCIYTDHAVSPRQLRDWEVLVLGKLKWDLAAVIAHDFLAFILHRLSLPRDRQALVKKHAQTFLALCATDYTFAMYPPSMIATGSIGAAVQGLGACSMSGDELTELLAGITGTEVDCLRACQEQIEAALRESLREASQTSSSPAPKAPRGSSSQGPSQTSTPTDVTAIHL

SMILES	pIC50
CN(C)Cc1ccc(-n2c(C(=O)N(C)C)cc3cnc(N[C@@H]4CCOC[C@H]4O)nc32)cc1C(F)(F)F [Example 7, 7-(4-((dimethylamino)methyl)-3-(trifluoromethyl)phenyl)-2-(((3S,4R)-3-hydroxytetrahydro-2H-pyran-4-yl)amino)-N,N-dimethyl-7H-pyrrolo[2,3-d]pyrimidine-6-carboxamide]	6.15
CN(C)Cc1ccc(-n2c(C(=O)N(C)C)cc3cnc(N[C@@H]4CCOC[C@H]4O)nc32)cc1F [Example 5, 7-(4-((dimethylamino)methyl)-3-fluorophenyl)-2-(((3S,4R)-3-hydroxytetrahydro-2H-pyran-4-yl)amino)-N,N-dimethyl-7H-pyrrolo[2,3-d]pyrimidine-6-carboxamide]	5.30
CN(C)Cc1ccc(-n2c(C(=O)N(C)C)cc3cnc(N[C@@H]4CCOC[C@H]4O)nc32)cc1Cl [Example 6, 7-(3-chloro-4-((dimethylamino)methyl)phenyl)-2-(((3S,4R)-3-hydroxytetrahydro-2H-pyran-4-yl)amino)-N,N-dimethyl-7H-pyrrolo[2,3-d]pyrimidine-6-carboxamide]	5.56
CC(C)n1c(C(C)(C)O)nc2c(F)cc(-c3nc(N[C@@H]4CCOC[C@H]4O)ncc3Cl)cc21 [Example A94 in WO2019207463, reference compound]	6.92
CN(C)C(=O)c1cc2cnc(N[C@@H]3CCOC[C@H]3O)nc2n1-c1ccc2c(c1)C1(CCC2N(C)C)CC1 (stereo partly drawn) [Example 10, 7-(4′-(dimethylamino)-3′,4′-dihydro-2′H-spiro[cyclopropane-1,1′-naphthalen]-7′-yl)-2-(((3S,4R)-3-hydroxytetrahydro-2H-pyran-4-yl)amino)-N,N-dimethyl-7H-pyrrolo[2,3-d]pyrimidine-6-carboxamide]	6.23
CN(C)Cc1ccc(-n2c(C(=O)N(C)C)cc3cnc(N[C@@H]4CCOC[C@H]4O)nc32)cc1 [Example 3, 7-(4-((dimethylamino)methyl)phenyl)-2-(((3S,4R)-3-hydroxytetrahydro-2H-pyran-4-yl)amino)-N,N-dimethyl-7H-pyrrolo[2,3-d]pyrimidine-6-carboxamide]	5.45
CN(C)C(=O)c1cc2cnc(N[C@@H]3CCOC[C@H]3O)nc2n1-c1ccc2c(c1)C1(CC1)CC2N(C)C (stereo partly drawn) [Example 13, 7-(3′-(dimethylamino)-2′,3′-dihydrospiro[cyclopropane-1,1′-inden]-6′-yl)-2-(((3S,4R)-3-hydroxytetrahydro-2H-pyran-4-yl)amino)-N,N-dimethyl-7H-pyrrolo[2,3-d]pyrimidine-6-carboxamide]	5.57
CN(C)C(=O)c1cc2cnc(N[C@@H]3CCOC[C@H]3O)nc2n1-c1ccc2c(c1)C(F)(F)CCC2N(C)C (stereo partly drawn) [Example 11, 7-(5-(dimethylamino)-8,8-difluoro-5,6,7,8-tetrahydronaphthalen-2-yl)-2-(((3S,4R)-3-hydroxytetrahydro-2H-pyran-4-yl)amino)-N,N-dimethyl-7H-pyrrolo[2,3-d]pyrimidine-6-carboxamide]	6.99

Further lines, results first:

pIC50	SMILES
5.17	CN1CCc2cc(-n3c(C(=O)N(C)C)cc4cnc(N[C@@H]5CCOC[C@H]5O)nc43)ccc2C1 [Example 8, 2-(((3S,4R)-3-hydroxytetrahydro-2H-pyran-4-yl)amino)-N,N-dimethyl-7-(2-methyl-1,2,3,4-tetrahydroisoquinolin-6-yl)-7H-pyrrolo[2,3-d]pyrimidine-6-carboxamide]
5.46	CN(C)C(=O)c1cc2cnc(N[C@@H]3CCOC[C@H]3O)nc2n1-c1ccc2c(c1)CCC2N(C)C (stereo partly drawn) [Example 12, 7-(1-(dimethylamino)-2,3-dihydro-1H-inden-5-yl)-2-(((3S,4R)-3-hydroxytetrahydro-2H-pyran-4-yl)amino)-N,N-dimethyl-7H-pyrrolo[2,3-d]pyrimidine-6-carboxamide]
7.43	CC(=O)c1c(C)c2cnc(N[C@@H]3CCOC[C@H]3O)nc2n(C2CCCC2)c1=O [Example 2 in WO2020212865, reference compound]
6.11	CN(C)Cc1ccc(-n2c(C(=O)N(C)C)cc3cnc(N[C@@H]4CCOC[C@H]4O)nc32)cc1C1CC1 [Example 4, 7-(3-cyclopropyl-4-((dimethylamino)methyl)phenyl)-2-(((3S,4R)-3-hydroxytetrahydro-2H-pyran-4-yl)amino)-N,N-dimethyl-7H-pyrrolo[2,3-d]pyrimidine-6-carboxamide]
5.08	Cc1ccc(-n2c(C(=O)N(C)C)cc3cnc(N[C@@H]4CCOC[C@H]4O)nc32)cc1 [Example 2, 2-(((3S,4R)-3-hydroxytetrahydro-2H-pyran-4-yl)amino)-N,N-dimethyl-7-(p-tolyl)-7H-pyrrolo[2,3-d]pyrimidine-6-carboxamide]
5.98	CN(C)C(=O)c1cc2cnc(N[C@@H]3CCOC[C@H]3O)nc2n1C1CCCC1 [Example 1, 7-cyclopentyl-2-(((3S,4R)-3-hydroxytetrahydro-2H-pyran-4-yl)amino)-N,N-dimethyl-7H-pyrrolo[2,3-d]pyrimidine-6-carboxamide]
6.11	CN(C)C(=O)c1cc2cnc(N[C@@H]3CCOC[C@H]3O)nc2n1-c1ccc2c(c1)CCCC2N(C)C (stereo partly drawn) [Example 9, 7-(5-(dimethylamino)-5,6,7,8-tetrahydronaphthalen-2-yl)-2-(((3S,4R)-3-hydroxytetrahydro-2H-pyran-4-yl)amino)-N,N-dimethyl-7H-pyrrolo[2,3-d]pyrimidine-6-carboxamide]
